Measurements: the supplement of paper PMC9174493
Some of the results follow. Single values of this set are uncertain. Values with irradiation are relative to irradiated vehicle.

Experiments:
A549-Dual [1] = test: NF-kB reporter (SEAP) activity, viability-corrected, relative to vehicle (fold change vs vehicle); higher = more activation of STING-IRF / NF-kB immune response reporter; conditions: 10 µM
A549-Dual [2] = test: ISRE reporter (Lucia luciferase) activity, viability-corrected, relative to vehicle (fold change vs vehicle); higher = more activation of STING-IRF / NF-kB immune response reporter; conditions: 10 µM
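Throughout, for NF-kB reporter (SEAP) activity, viability-corrected, relative to vehicle: viability correction based on the alamar blue assay, with concentrations leaving 10% survival or less dropped.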

SMILES	NF-kB reporter (A549-Dual [1]; irradiation: 8 Gy/4 fr)	NF-kB reporter (A549-Dual [1]; irradiation: none)	ISRE reporter (A549-Dual [2]; irradiation: 8 Gy/4 fr)	ISRE reporter (A549-Dual [2]; irradiation: none)
CC(C)=CCCC(C)CC=O (stereo unspecified) [Citronellal]	1.07	0.735	1.09	0.744
CNS(=O)(=O)Cc1ccc2[nH]cc(CCN(C)C)c2c1.O=C(O)CCC(=O)O [Sumatriptan Succinate]	0.85	0.897	0.94	0.882
CCCCC(=O)OCC(=O)C1C(C)CC2C3CC(F)C4=CC(=O)C=CC4(C)C3(F)C(O)CC21C (stereo unspecified) [Diflucortolone valerate]	0.399	0.505	0.0458	0.141
O=C(O)[C@H](O)c1ccccc1 [(R)-(-)-Mandelic acid]	1.11	1.16	1.09	1.3
CC1COc2c(N3CCN(C)CC3)c(F)cc3c(=O)c(C(=O)O)cn1c23 (stereo unspecified) [Ofloxacin]	0.768	0.823	0.765	0.875
CO/N=C(\C(=O)NC1C(=O)N2C(C(=O)[O-])=C(C[N+]3(C)CCCC3)CSC12)c1csc(N)n1.Cl.Cl.O (stereo unspecified) [Cefepime Dihydrochloride Monohydrate]	0.757	1.05	0.692	0.726
COc1c(N2CC3CCCNC3C2)c(F)cc2c(=O)c(C(=O)O)cn(C3CC3)c12.Cl (stereo unspecified) [Moxifloxacin HCl]	0.812	0.972	0.744	0.904
O=C(O)CCC(=O)O.O=C(OC1CN2CCC1CC2)N1CCc2ccccc2C1c1ccccc1 (stereo unspecified) [Solifenacin succinate]	0.799	1.05	1.02	1.5
COC(=O)NC(C(=O)N1CCCC1C(=O)Nc1ccc(C2CCC(c3ccc(NC(=O)C4CCCN4C(=O)C(NC(=O)OC)C(C)C)cc3)N2c2ccc(C(C)(C)C)cc2)cc1)C(C)C (stereo unspecified) [Ombitasvir (ABT-267)]	1.06	0.965	1.08	1.33
Cc1cc(=O)n(-c2ccccc2)n1C [Antipyrine]	0.905	0.94	1.05	0.834
CCOC(=O)c1ccc(O)cc1 [Ethylparaben]	0.896	0.932	0.975	0.823
O=C(O)C(O)C(O)C(=O)O (stereo unspecified) [Tartaric acid]	1.12	1.11	1.24	0.971
O=C1OC(CO)C(O)C(O)C1O (stereo unspecified) [Gluconolactone]	0.468	0.654	0.602	0.6
O=C(O)CCCNC(=O)c1cccnc1 [Pikamilone]	0.754	0.785	0.919	0.753
Clc1ccc(COC(Cn2ccnc2)c2ccc(Cl)cc2Cl)c(Cl)c1.O=[N+]([O-])O (stereo unspecified) [Miconazole Nitrate]	0.472	0.692	0.334	0.556
Cc1nc(C(=O)NCC(=O)O)c(O)c2ccc(Oc3ccccc3)cc12 [Roxadustat (FG-4592)]	0.667	0.764	0.418	0.475
CC1=CCC(O)(C(C)C)CC1 (stereo unspecified) [Terpinen-4-ol]	0.472	0.45	0.0622	0.105
COCCNC(=O)CN(CCN(CCN(CC(=O)[O-])CC(=O)NCCOC)CC(=O)[O-])CC(=O)[O-].[Gd+3] [Gadoversetamide]	0.771	0.723	0.74	0.62
CCC1/C=C(\C)CC(C)CC(OC)C2OC(O)(C(=O)C(=O)N3CCCCC3C(=O)OC(/C(C)=C/C3CCC(O)C(OC)C3)C(C)C(O)CC1=O)C(C)CC2OC (stereo unspecified) [Ascomycin (FK520)]	0.753	1.08	0.785	2.75
CC(C)C(NC(=O)C(CC(=O)O)NC(=O)C(CCCCN)NC(=O)C(N)CCCNC(=N)N)C(=O)NC(Cc1ccc(O)cc1)C(=O)O (stereo unspecified) [Thymopentin]	0.909	0.789	1.04	0.767
Cc1cc(O)c2c(c1)C(=O)c1cc(O)cc(O)c1C2=O [Emodin]	0.546	0.493	0.192	0.263
CCCc1ncc(C[n+]2ccccc2C)c(N)n1.Cl.[Cl-] [Amprolium HCl]	0.867	1.18	0.86	1.18
COc1ccc(NC(=O)c2ccc(C(=N)N(C)C)cc2)c(C(=O)Nc2ccc(Cl)cn2)c1.O=C(O)/C=C\C(=O)O [Betrixaban maleate]	1.19	0.834	1.34	0.919
Cn1nnc(-c2ccc(-c3ccc(N4CC(COP(=O)(O)O)OC4=O)cc3F)cn2)n1 (stereo unspecified) [Tedizolid Phosphate]	0.537	0.818	0.321	0.479
COC(=O)C1=COC(OC2OC(CO)C(O)C(O)C2O)C2C(CO)=CCC12 (stereo unspecified) [Geniposide]	1.13	0.733	1.4	0.703
COc1ccc2cccc(CCNC(C)=O)c2c1 [Agomelatine]	0.691	0.891	0.674	0.856
C=C1CCC2CC1C2(C)C (stereo not drawn) [(-)-β-Pinene]	0.734	0.9	0.729	0.812
Clc1ccc(COC(Cn2ccnc2)c2ccc(Cl)cc2Cl)cc1.O=[N+]([O-])O (stereo unspecified) [Econazole nitrate]	0.408	0.57	0.333	0.523
CCCC1CC(C(=O)NC(C(C)O)C2OC(SC)C(O)C(O)C2O)N(C)C1.Cl.O (stereo unspecified) [Lincomycin Hydrochloride Monohydrate]	0.856	0.881	0.668	0.569
